Source: publication PMC4336329 (PLoS ONE, 2015)
Screen size: about 310,000 compounds; about 2,200 (0.71%) showed an effect of 50% or more. The effect is printed as a negative number. The list shows a part of the results.

target: human ether-à-go-go-related gene (hERG) potassium channel (human, UniProt Q12809); experiment: primary screen, population patch clamp on CHO cells stably expressing hERG
Sequence (Q12809 whole entry, looked up): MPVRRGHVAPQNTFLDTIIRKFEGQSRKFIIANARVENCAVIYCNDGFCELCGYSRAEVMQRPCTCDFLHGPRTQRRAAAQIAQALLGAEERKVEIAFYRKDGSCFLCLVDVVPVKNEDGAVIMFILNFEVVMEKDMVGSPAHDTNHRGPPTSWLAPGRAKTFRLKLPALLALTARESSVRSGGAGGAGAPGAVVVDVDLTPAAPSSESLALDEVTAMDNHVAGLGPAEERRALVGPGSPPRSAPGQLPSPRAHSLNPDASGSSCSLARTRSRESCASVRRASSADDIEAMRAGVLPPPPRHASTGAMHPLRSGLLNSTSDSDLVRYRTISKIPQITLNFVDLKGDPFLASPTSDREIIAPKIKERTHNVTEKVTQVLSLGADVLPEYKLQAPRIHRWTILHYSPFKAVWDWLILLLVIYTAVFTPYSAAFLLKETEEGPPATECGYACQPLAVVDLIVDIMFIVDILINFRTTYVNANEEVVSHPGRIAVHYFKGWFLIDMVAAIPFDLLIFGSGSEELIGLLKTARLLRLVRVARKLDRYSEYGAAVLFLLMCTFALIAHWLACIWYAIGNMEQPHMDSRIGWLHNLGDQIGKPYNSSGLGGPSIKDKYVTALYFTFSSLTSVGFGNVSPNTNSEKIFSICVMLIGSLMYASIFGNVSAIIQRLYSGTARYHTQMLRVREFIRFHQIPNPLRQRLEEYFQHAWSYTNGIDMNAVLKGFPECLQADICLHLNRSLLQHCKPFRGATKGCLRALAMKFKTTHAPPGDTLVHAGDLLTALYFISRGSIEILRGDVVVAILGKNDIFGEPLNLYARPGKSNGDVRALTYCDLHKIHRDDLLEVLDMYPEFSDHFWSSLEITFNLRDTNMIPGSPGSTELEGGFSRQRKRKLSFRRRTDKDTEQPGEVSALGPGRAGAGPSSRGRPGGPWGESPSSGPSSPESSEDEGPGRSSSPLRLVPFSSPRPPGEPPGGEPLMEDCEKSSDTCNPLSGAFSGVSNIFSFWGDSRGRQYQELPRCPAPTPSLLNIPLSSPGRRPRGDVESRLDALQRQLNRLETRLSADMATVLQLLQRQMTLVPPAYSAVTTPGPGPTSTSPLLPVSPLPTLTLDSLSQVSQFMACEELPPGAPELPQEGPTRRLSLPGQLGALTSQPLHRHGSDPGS

| Compound | hERG current change (%, negative = inhibition) at 1uM [%] |
| --- | --- |
| COC(=O)c1c(C)[nH]c(O)c1C=Nc1ccc(C#N)cc1 | 7.01 |
| COc1cc(/C=N/n2cnnc2)ccc1OCCOc1ccccc1 | 10.5 |
| OCCC1CN(Cc2cnc(-c3ccccc3)s2)CCN1CCc1ccccc1 (stereo not shown) | -48.7 |
| COC(=O)c1ccc(C2/C(=C(\O)c3ccc4c(c3)OCCO4)C(=O)C(=O)N2c2nnc(C)s2)cc1 (stereo not shown) | 12.8 |
| Cc1ccc2[nH]c(=O)c(CN(CCCO)S(=O)(=O)c3cccc4nsnc34)cc2c1 | -5.96 |
| Nc1ccccc1-c1nc2ccccc2c(=O)o1 | 15.5 |
| COc1ccc(OC)c(S(=O)(=O)Nc2c(NC3CCCCC3)c3ccccc3oc2=O)c1 | -2.54 |
| O=C(Nc1ccc(N2CCOCC2)cc1)c1ccncc1 | 8.02 |
| CCOc1ccccc1CNCCc1ccc2c(c1)OCO2.Cl | 1.75 |
| CC(=O)c1ccc([C@H]2C[C@@]34CN(C(=O)OC(C)(C)C)S(=O)(=O)[C@H]3C[C@H]2O4)cc1 | 8.76 |
| CNc1nc2c(c(=O)n(C)c(=O)n2C)n1CCCc1ccccc1 | 14.4 |
| COc1ccc(S(=O)(=O)N2CCCCC2)cc1NC(=O)CSc1ncccn1 | 2.91 |
| CC(C)=C[C@@H]1C[C@H](C)[C@H]2CC[C@H](C)c3c(O)c(O)c(C)c1c32 | 15.6 |
| C(=N\n1cnnc1)/c1nc2ccccc2[nH]1 | 9.24 |
| Cc1ccc(CN2CCN(Cc3ccccc3-c3ccco3)CC2CCO)o1 (stereo not shown) | -3.73 |
| O=S(=O)(Cc1ccccc1Cl)NCCOc1ccccc1 | 5.72 |
| CSc1nc(N)cc(=O)[nH]1 | 8.1 |
| CC(=O)Nc1cccc(NC(=O)C2CCCN2C(=O)Nc2ccc(Cl)cc2)c1 (stereo not shown) | 6.1 |
| COC(=O)c1ccc(N2CCOCC2)c(NC(=O)c2ccc3c(c2)OCO3)c1 | 5.34 |
| COc1ccc(C(=O)/C(=C\N(C)C)n2nc(C)cc2C)cc1 | 1.81 |
| CCOC(=O)C(=O)Nc1ccc(S(=O)(=O)Nc2nccs2)cc1 | 13.9 |
| COc1ccccc1NC(=O)c1cc(S(=O)(=O)N2CCOCC2)ccc1Cl | -0.529 |

| Compound | hERG current change (%, negative = inhibition) at 1uM [%] |
| --- | --- |
| CC(C)C1N(C(N)=S)N=CC1(C)C (stereo not shown) | 9.78 |
| Cc1cccc(NC(=O)NCCN2C(=O)C3C4C=CC(C4)C3C2=O)c1 (stereo not shown) | 1.92 |
| O=[N+]([O-])c1cccc(-c2nc(NCc3ccccc3)c3ccccc3n2)c1 | 9.78 |
| CSc1ncccc1C(=O)OCc1ccccc1F | 12.1 |
| O=C(O)C(=O)O.O=[N+]([O-])c1ccc(CNC2CCCc3ccccc32)cc1 (stereo not shown) | 5.22 |
| O=C(CCC(=O)Nc1cccc2ccccc12)N/N=C/c1ccco1 | 0.541 |
| COCCNC(=O)Cn1nc(-c2ccc(C)cc2)ccc1=O | 10.1 |
| O=C(NC1CCCC1)c1cccc(S(=O)(=O)N2CCOCC2)c1 | 16.4 |
| Fc1ccc(/C=N/NC(=S)Nc2ccc(Cl)cc2Cl)cc1 | 8.93 |
| CCc1cccc(C)c1NC(=O)CN1C(=O)c2ccccc2S1(=O)=O | 1.02 |
| Cc1nnc(SCC(=O)NNC(=O)C(C)C)[nH]c1=O | 13.1 |
| Cc1cs/c(=N\N=C\c2ccc(O)cc2)n1Cc1ccco1 | 7.62 |
| O=S(=O)(NCc1cccnc1)c1ccccc1 | 13.7 |
| O=C(Nn1c(-c2ccccc2)nc2ccccc2c1=O)c1ccco1 | 8.18 |
| Oc1ccccc1/C=N/n1c(-c2cccs2)n[nH]c1=S | 4.78 |
| CCNC(=O)COC(=O)/C=C/c1ccccc1[N+](=O)[O-] | 11.8 |
| CCc1ccccc1N(CC(=O)OC)S(C)(=O)=O | 15.4 |
| O=C(NCC(=O)N1CCOCC1)c1ccc(Br)o1 | 9.1 |
| CN(C)c1ccc(C(CNS(=O)(=O)c2ccc([N+](=O)[O-])cc2)N2CCCC2)cc1 (stereo not shown) | -6.67 |
| CN1CC2=CC(O)CC3Oc4c(O)ccc(c4[C@]23C)C1 (stereo partly shown) | 19.8 |
| COc1cc(CCC(=O)OCC(=O)Nc2c(C)cc(C)cc2C)cc(OC)c1OC | 3.3 |
